Test results from PubChem BioAssay AID1347120 (National Center for Advancing Translational Sciences (NCATS), 2019).
Several values for one entry are separate records, joined by “and”; a condition that tells them apart may be missing. Equal entries are not always repeated. In all, about 390,000 compounds went through this assay and about 930 (0.24%) were called active. Inconclusive means that the source gave no clear call. Such entries were picked first, then a sample of the others. Calls come from the whole dose curve; as a rule, active = well fitted activation curve with a large enough effect; inconclusive = small, poorly fitted or top-dose-only effect; inactive = no such curve, though single readings can be large or run the other way. A potency beside an inconclusive call is a rough fit, not a confirmed value.

Test: qHTS for Suppressors of FUS Proteinopathy: Primary screen using FUS-linked yeast assay; note: nearly all actives have a fitted effect of over 55% in size;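 for growth rescue (activation): plate controls were DMSO vehicle for no effect and reference control for full effect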
Conditions: S. cerevisiae FUS-expressing, OD600, 24 h; Potency: growth rescue; growth rescue (activation): at 76.6 µM (top of the series)
Outline: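 Yeast expressing FUS under galactose induction, OD 0.005 in 2% galactose medium; compounds in a dilution series, 24 h at 30C. Growth rescue by absorbance at 600 nm; CP55940 positive control, DMSO negative.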
Potency is the fitted concentration of half-maximal effect; tags give direction and shape of the fitted curve.

Row | SMILES | growth rescue (activation) | Potency
1 | CCCCOc1ccc(C)cc1CN(CCO)CCO | inactive: -2.62% | 
2 | Cc1cccc(N(C(=O)c2snc(C(N)=O)c2N)C(C(=O)NCc2ccccc2)c2ccncc2)c1 (stereo not given) | inactive: 29.3% | 
3 | CCC(C)[C@H](NC(=O)NCc1ccccn1)C(=O)OC (stereo not given in full) |  | inconclusive: 5.62 µM [activator, single point]
4 | Cc1ccc(S(=O)(=O)N2CCOCC2)cc1NC(=O)CN1C(=O)NC(C)(c2ccc(Cl)cc2Cl)C1=O (stereo not given) |  | inconclusive: 25.1 µM [activator, single point]
5 | COCC(C)OC(=O)C(C#N)c1nc2ccccc2nc1N1CCN(Cc2ccccc2)CC1 (stereo not given) | inactive: -8.74% | 
6 | CCOc1ccc2c(c1)C(C)=CC(C)(C)N2C(=O)Nc1ccccc1 | inactive: 29.6% | 
7 | Cc1ccc(S(=O)(=O)c2c(N)n(Cc3ccco3)c3nc4ccccc4nc23)cc1 |  | active: 22.4 µM
8 | Cc1ccc2oc(C(=O)N(Cc3ccccc3F)C3CCS(=O)(=O)C3)c(C)c2c1 (stereo not given) |  | inconclusive: 39.8 µM [activator, single point]
9 | CCC(C)Sc1ccc(-c2nc3cnccn3c2NC2CCCCC2)cc1 (stereo not given) |  | inconclusive: 14.1 µM [activator, partial curve] and inconclusive: 50.1 µM [activator, single point]
10 | COc1ccc(/C=C/C(=O)NC(=S)NNC(=O)Cc2cccs2)cc1OC | inactive: 11.6% | 
11 | Cc1ccc(C)c(S(=O)(=O)N2CCC(c3nc4c(nnn4Cc4ccc5c(c4)OCCO5)c(=O)[nH]3)CC2)c1 |  | inconclusive: 28.2 µM [activator, single point]
12 | COc1ccc(OC)c(-c2cc(C(=O)Nc3cc(C)n(Cc4ccc(Cl)cc4)n3)no2)c1 | inactive: 11% | 
13 | CC1CCC(C(C)C)C(OCC(O)CNC(C)c2ccccc2)C1 (stereo not given) |  | inconclusive: 20 µM [activator, partial curve, poor fit]
14 | O=c1c(-c2cccnc2)nc2ccccc2n1C(c1ccccn1)c1nc2ccccc2[nH]1 (stereo not given) |  | inconclusive: 25.1 µM [activator, single point]
15 | Cc1cccc2cc(C(c3nnnn3Cc3ccccc3)N3CCN(c4ccccc4)CC3)c(=O)[nH]c12 (stereo not given) |  | inconclusive: 17.8 µM [activator, partial curve, poor fit]
16 | O=C(Nc1ccccc1)C1Cc2c(-c3ccccc3Oc3ccccc3)ccnc2O1 (stereo not given) | inactive: 38.2% | 
17 | COc1ccc(NC(=O)[C@@H](c2ccccc2)N2Cc3ccccc3C2=O)cc1OC |  | inconclusive: 35.5 µM [activator, single point]
18 | CCOc1ccc(CNC(=O)c2c(C)nn(-c3ccc(F)cc3)c2-n2cccc2)cc1 | inactive: 1.75% | 
19 | Cc1ccc(-c2csc(N3CCC[C@@H]3C(=O)NCCn3c(C(F)(F)F)nc4ccccc43)n2)cc1 |  | inconclusive: 7.08 µM [activator, full curve, poor fit]
20 | N#C/C(=C/c1ccc(N2CCOCC2)o1)c1ccc(Br)cc1 |  | inconclusive: 39.8 µM [activator, partial curve, poor fit]

Row | SMILES | growth rescue (activation) | Potency
21 | COc1ccc(C)cc1NC(=O)C1CCN(C(=O)c2ccc(C(C)(C)C)cc2)CC1 |  | inconclusive: 25.1 µM [activator, partial curve, poor fit]
22 | CCOC(=O)[C@@H]1[C@H]2COc3cc(OC)ccc3[C@@H]2N2C(=O)N(c3ccc(Cl)cc3)C(=O)[C@@]12C |  | inconclusive: 50.1 µM [activator, single point]
23 | CSc1nnc(-c2sc3cc(C(F)(F)F)cnc3c2-c2ccccc2)n1C |  | inconclusive: 31.6 µM [activator, single point]
24 | CCCOc1cccc(-c2cc(C(=O)NNC(=S)NCC)c3ccccc3n2)c1 |  | inconclusive: 4.47 µM [activator, partial curve, poor fit]
25 | Cc1ccc(CN2CC(C(=O)Nc3ccncc3)CC2=O)cc1 (stereo not given) |  | inconclusive: 31.6 µM [activator, single point]
26 | COc1ccc(C(=O)COC(=O)c2cc(S(=O)(=O)N3CCCCC3)ccc2N2CCOCC2)c(OC)c1 |  | active: 15.8 µM
27 | CCc1nc2ccc(C(=O)NCCCN3CCCC3=O)cn2c1N(C)C(=O)C1CCCCC1 | inactive: -9.42% | 
28 | CCN(C(=O)c1cc2c(=O)n3ccccc3nc2n1CCCOC)C1CCCCC1 | inactive: 16.8% | 
29 | Cc1cccc(COC[C@H](Cc2ccccc2)N2CCN(C(=O)c3cc(Cl)cc(Cl)c3)CCC2=O)c1 |  | inconclusive: 28.2 µM [activator, single point]
30 | Cc1[nH]n(C(N)=S)c(=O)c1N=Nc1ccc(S(=O)(=O)N2CCCC2)cc1 |  | inconclusive: 10 µM [activator, full curve]
31 | Cc1nnc(SCC(=O)Nc2cc(-c3cc(C)c(C)cc3C)nn2-c2ccccc2)s1 |  | active: 25.1 µM
32 | c1ccc(-c2nnc(SCc3ccncc3)o2)cc1 | inactive: -36.2% | 
33 | CCCC[C@@H]1Cc2[nH][nH]c(=O)c2[C@H](c2ccc(C(C)C)cc2)O1 |  | inconclusive: 25.1 µM [activator, single point]
34 | COc1cccc(S(=O)(=O)Nc2ccc(C(O)(C(F)(F)F)C(F)(F)F)cc2)c1 | inactive: 12% | 
35 | CCN(CC)S(=O)(=O)c1ccc2c(c1)N(CC(=O)N1CCN(c3cccc(C(F)(F)F)c3)CC1)C(=O)CO2 |  | inconclusive: 3.16 µM [activator, full curve, poor fit]
36 | Cc1c(Cl)cccc1-n1ncc(C(=O)Nc2ccc3c(c2)OCCO3)c1C1CCN(C(=O)OC(C)(C)C)CC1 |  | inconclusive: 8.91 µM [activator, partial curve, poor fit]
37 | COc1ccc(-c2nn(C)c3sc(C(=O)Nc4cccc(F)c4)cc23)cc1OC |  | inconclusive: 28.2 µM [activator, single point]
38 | Cc1ccc(C(=O)NCCc2nnc3ccc(SCC(=O)NCc4ccc(F)cc4)nn23)cc1 |  | inconclusive: 11.2 µM [activator, partial curve, poor fit]
39 | COc1ccc2cc(C(=O)NCc3ccco3)c(=Nc3ccc(C(=O)O)cc3)oc2c1 |  | inconclusive: 44.7 µM [activator, single point]
40 | Cc1ccc(C2Nc3ccccc3-n3c(-c4ccccc4)c4c(=O)n(C)c(=O)n(C)c4c32)o1 (stereo not given) |  | inconclusive: 28.2 µM [activator, partial curve, poor fit]
